B1: OR4K15 (parent)
chain: GUUAACGGUCAUAGGCCAUGGAAACUAGGAGCACCAUUUCGCUGCCAGUGAAGAAAUGAACAAAGAAAAUCUGGGCCAGGCAGGCAUCAAAAGAAAUAGUCUUGCGCUCAACCAGAAAGUCUGUAAUCAUUUUAAGGGUA

The source gives no read counts; variants with many changes may rest on few reads.

This data set covers variants of B1. Put plainly: self-cleavage, relative activity (ratio to wild type); higher = more cleavage; in vitro, sequencing; the parent is a self-cleaving ribozyme.
As to A69G A96G U102A, the self-cleavage was found to be 0.95. With A68G U102C U103C, the self-cleavage is 0.25.

Regarding A67G A98G U100C A114U A118G U122A G137A, the self-cleavage worked out at 0.02. Under A67G A118G A134G stands 1.35. Under A68G A111G U131C stands 0; under U70C A92G A118G A134U, 0.18. Regarding A68G A110G A126G, the self-cleavage came out at 0.12.

On to A69U A82G A94U U127C, for which the self-cleavage came to 0.89. As to U70C A90U U120C, the self-cleavage amounted to 0.13.

Take U70C A78G C105U: the self-cleavage turned out to be 0.04.

Consider A68G A96U A111G, for which the self-cleavage was found to be 0.03. As for U70G A126G C128A, the self-cleavage stood at 0.4. Under A67G U120A A125U U132C stands 0.78. Under A69G U87C A94G stands 1.3; under U70C A78G U127C A140G, 0.11; under A67G U102C A110G, 0.19.

In the case of U70C A91G A94C A125G, the self-cleavage was 0.08. Consider A68G A78G A135G, for which the self-cleavage was 0.25. In the case of A69G A111G U127C, the self-cleavage was 0.02. Under U70C A94G U132C stands 0.89. For A67G A90U U102C U103A A126G U139A the value was 0.21; for A69U U97A U133C, 2.28; for A69G U97C C107U, 0.01.

As for U70A U97C A110G A114U U124C, the self-cleavage amounted to 0.

U70C A82G A96G: the self-cleavage was 0.36. Regarding A68G A69U U127C, the self-cleavage was determined as 0.83. A68G A90G U108C: the self-cleavage came to 0.02. As to A67G U130C A140U, the self-cleavage was 1.56. A68G U108C G115A: the self-cleavage stood at 0.02. Turning to A68U A92G A116G, the self-cleavage stood at 0.56. For A69U A89C A96G U122A the value was 1.96; for A69G U70C U131C, 0.12. Take A68G C109U A110G: the self-cleavage was determined as 0.02. Under A68G A110G A129G stands 0.11. For A67G A89U U103C the value was 0.63; for U70C A82G U108C A117C U127A U130G, 0.01; for U70A A91G U122A A140C, 0.16. Under A67G A111G A116G stands 0.01. As to U70C A78U A116U, the self-cleavage amounted to 0.08.

On to A68G G83A G93A, for which the self-cleavage is 2.49. Take U70C A89G U108C A110G A117G: the self-cleavage turned out to be 0.

Take U70C A89G U122C: the self-cleavage stood at 0.1.

Turning to U70C A82G U120C A125U, the self-cleavage came out at 0.08.

On to A68G A90C A116G A118U U132C, for which the self-cleavage stood at 0.03. Under A67G G79U A114G stands 0.03. With A68G A90G A94G, the self-cleavage is 1.25. Under U70A U87C A110G stands 0.09; under U70G U100C G106A A111G U131C, 0. For A69G U70C C105U the value was 0.07. For A68U G80U A91G U97C the value was 0.06; for A68U C76G A110G, 0.04; for A67G U87C U139C, 1.16. As for A67G A96U U122C, the self-cleavage was found to be 2.02. Regarding U70C C121A U127C, the self-cleavage was 0.67. For the variant U70C G80C A90C, the self-cleavage turned out to be 0.15. As to A69G U102C A110U A111G, the self-cleavage came to 0.01. U70C A92G U120C: the self-cleavage came to 1.57. Regarding A67G U100C A125G, the self-cleavage came out at 1.03. Under C71U A78G A90U A95G A118G stands 0.2; under A67G A96G U120A A125G, 0.25. For A68G A91G A94G U131C G137U the value was 0.75. As for A67G A94U U127C, the self-cleavage was 1.25.

In the case of U70G G74A A111G, the self-cleavage came to 0.02. Take A67G A96U A116G: the self-cleavage is 0.49. Under A68U A96G A118G U122G stands 1.75; under A68G A90G U127C, 0.69; under A67G U122A U124C, 0.67. As for A69C A117G A129U, the self-cleavage is 1.17. With A68G A90G G93U U122C, the self-cleavage came to 1.62. For A67U A68G A134G, the self-cleavage was found to be 2.2. Under C71A A92G U130C stands 0.15. Under A68G U100C A140G stands 2.65.

With A68G A78G A126U, the self-cleavage was determined as 0.13. For A68U A86U A116U A126G the value was 0.32; for A67U A89G U102A, 0.88.

As to A67U U97C U103C, the self-cleavage was 1.05.

In the case of A67G C109U A114U, the self-cleavage is 0.08. Under A67U A68G A91G stands 1.2; under A67U U70C U97C, 0.45. As to A69G A82G U122C, the self-cleavage was 0.18. Under A69U A82C A94G A111G stands 0.02; under A69G A82G U103C A135G, 1.41; under A68G C105U U127C, 0.03. Under U70A A96C A98G stands 0.4. Under A67G A92U U132C stands 1.42; under A67G A114C U133C, 0.05; under A67G A92G U120C, 0.1. Take A69G A89C U124C: the self-cleavage amounted to 0.65. As to A67G A94G G104A U108C A116G, the self-cleavage was determined as 0.

With A68G A125G U139C, the self-cleavage was found to be 0.72. Under A69G G74A A86U A95G stands 0; under A68G U97C U131C, 0.98. Take A69G U102C U131C: the self-cleavage came to 1.42. Take C71A U103A U130C: the self-cleavage was determined as 0.08. Under A69C A110G A118G stands 0.1. For A69G A90G A110C U131G the value was 0.18; for A68G A94G U100C, 1.77. Regarding A68G A69G U130C, the self-cleavage stood at 0.19. Turning to A68C A95G U108C, the self-cleavage is 0.01.

For A68G U103A U130C, the self-cleavage worked out at 0.2. Under A69G A94U U127C stands 1.61; under A69G A78G A92G U108C U122C, 0; under A68G A89C A95G A126C, 0.94.

With A68G C107G U131C, the self-cleavage is 0.03. With A68U A91G U102C, the self-cleavage is 1.44. On to U70C U102A U131C, for which the self-cleavage was 0.24.

U70A A110G A117G: the self-cleavage is 0.01. Under A68G A116U U127G stands 0.36; under A67G C77U A117G, 1.92.

As for A67G A91G A116G U132C, the self-cleavage was determined as 0.37. For A69G C105U A110U A114C the value was 0.01; for A68G A90G U132C, 0.86. For A67U A82C C109U the value was 0.08. On to A67G U103C A117G, for which the self-cleavage was determined as 0.58. For the variant A68U A82G U100A, the self-cleavage was 0.15. With A69G A92G A117G U127C, the self-cleavage worked out at 0.28. On to A67U A92G G119A, for which the self-cleavage amounted to 1.72. For U70C U103C A114G, the self-cleavage is 0.03. Turning to A68G A78G A116G, the self-cleavage came out at 0.11. Turning to A68G U87G A90G A117G, the self-cleavage worked out at 0.86. Under A68G A118G G137A stands 1.06; under A67G C81A A111G, 0.03.

Regarding A69G U103C A116C, the self-cleavage turned out to be 0.11. For A68G C76U A114U the value was 0; for A68G A91G A125U, 0.73.

For A69U A94G U108C, the self-cleavage was determined as 0.02. For U70C A111G U139A the value was 0.03; for A69G U70A A91U, 1.98; for A67G A129C U132C, 1.46. Under A67G U103A A116G stands 0.33. As to A69G A86G A117G U122C U132C, the self-cleavage was 0.42. For U70C A90G A129G the value was 0.12; for A69G A78G A94G, 0.24; for A69G A116G U131C, 0.22. Under A69U A91U U97C A117G stands 1.46.

For the variant A67G A114G A126G, the self-cleavage was found to be 0.3. As to A67U U87C A114U A116G, the self-cleavage turned out to be 0.01. Under A68G U72C G104A stands 0.04. For A69G A117G A135U U139C the value was 0.55; for A68U U132G U133C, 1.88. For A69G U102C U139A the value was 1.66. As for A67U A69U A116G U139C, the self-cleavage was determined as 1.42. Consider A69G A111G A126U U132C, for which the self-cleavage worked out at 0. For A68G C81A A82G A86G A94G A118G U139A the value was 0.09; for A69C A89G A129G, 0.43. Under A68G A89G U120C stands 0.82; under A69C U70C U108C A116G A117G, 0; under A68G A98U A140U, 1.85. Turning to A69G U70C A118U, the self-cleavage came to 0.08. For A67G C85U U87C U102C the value was 0.94; for A69G U100G A118G, 1.21. With A69G A89G A129G U131C, the self-cleavage is 0.68. For U70A U100C U120C the value was 2.1; for A69G A98G A114G, 0.14; for U70C A116G A117G, 2.01.

With A68U A91G G137A, the self-cleavage was 1.2.

A69G G75C U87C A96C A111G U130C: the self-cleavage was found to be 0.

As to A69G U102A A118G A126G, the self-cleavage was 0.41. Under A67G A90G A110G stands 0.04; under U70C G79U A91G, 0.08. Take A68G U87C A94U: the self-cleavage is 1.06. Under A68U U70A U100C U103A U108C stands 0.01. For the variant A67G U97A A126G, the self-cleavage amounted to 1.58. Take A67U U87C G99C: the self-cleavage is 0.4.

With U70C U87A U102C A118U, the self-cleavage turned out to be 0.4. As for A69G A98G U108G, the self-cleavage came to 0.02. Under U70C A90G A92G stands 0.67.

(Values after the RNAGym collection of RNA variant scans (doi:10.7554/elife.90254).)
